Earlier results in article PMC11006913.
The other results are listed elsewhere or left out.

How the values were obtained:
Conditions in all cases: PBM; conditions not shown; double strand, one strand shown; scale: upbm affinity estimate (log intensity, higher = more binding, comparable within an allelic series)
ARX (Homo sapiens) = ARX (Homo sapiens) (UniProt Q96QS3)
ARX L343Q (Homo sapiens) = ARX L343Q (Homo sapiens) (UniProt Q96QS3)
ARX P353L (Homo sapiens) = ARX P353L (Homo sapiens) (UniProt Q96QS3)
ARX P353R (Homo sapiens) = ARX P353R (Homo sapiens) (UniProt Q96QS3)
ARX R332H (Homo sapiens) = ARX R332H (Homo sapiens) (UniProt Q96QS3)
ARX T333N (Homo sapiens) = ARX T333N (Homo sapiens) (UniProt Q96QS3)

Sequence | binding signal (ARX (Homo sapiens)) | binding signal (ARX L343Q (Homo sapiens)) | binding signal (ARX P353L (Homo sapiens)) | binding signal (ARX P353R (Homo sapiens)) | binding signal (ARX R332H (Homo sapiens)) | binding signal (ARX T333N (Homo sapiens))
CCCCCAGC [8-mer CCCCCAGC] | 9.92 | 9.85 | 9.93 | 9.77 | 9.82 | 9.99
GATTTACA [8-mer GATTTACA] | 11.1 | 10.7 | 11 | – | – | –
GCGGCGGA [8-mer GCGGCGGA] | 10.3 | 10 | 10.2 | 10.1 | 10 | 10.2
CGCGAGCG [8-mer CGCGAGCG] | 10.4 | 10.2 | 10.3 | 10.2 | 10.2 | 10.4
GCAGCCGC [8-mer GCAGCCGC] | 10.3 | 10.1 | 10.2 | 10.1 | 10.1 | 10.3
ACCGCGGG [8-mer ACCGCGGG] | 10.3 | 10.3 | 10.3 | 10.2 | 10.3 | 10.3
AAATTAAC [8-mer AAATTAAC] | 12.6 | 10.8 | 12 | 10.7 | 10.9 | 11.7
CTTCCGCC [8-mer CTTCCGCC] | 10.1 | 10.2 | 10.2 | 10.2 | 10.2 | 10.3
ATGATACA [8-mer ATGATACA] | 11 | – | – | – | – | –
ATGAGTAA [8-mer ATGAGTAA] | 11.1 | – | – | – | – | –
CTTAATGC [8-mer CTTAATGC] | 11.5 | 10.7 | 11.2 | 10.6 | 10.7 | –
AGAGTAAT [8-mer AGAGTAAT] | 11.5 | 10.7 | 11.3 | 10.7 | 10.9 | –
TCGGGCCA [8-mer TCGGGCCA] | 10.3 | 10.1 | 10.3 | 10.1 | 10.2 | 10.2
TAGTAACA [8-mer TAGTAACA] | 11.1 | – | – | – | – | –
CGTAATCA [8-mer CGTAATCA] | 12 | 10.7 | 11.6 | 10.8 | 10.9 | –
GAGGCACC [8-mer GAGGCACC] | 10.3 | 10.1 | 10.3 | 10.1 | 10.1 | 10.3
CTCAATAA [8-mer CTCAATAA] | 11.4 | 10.6 | 11.2 | 10.6 | 10.8 | –
AATTGCAT [8-mer AATTGCAT] | 11.7 | 10.8 | 11.4 | 10.8 | 11 | –
AATAAGTA [8-mer AATAAGTA] | 11.6 | 10.8 | 11.3 | 10.7 | 11 | –
GAGGCCGC [8-mer GAGGCCGC] | 10.1 | 10.2 | 10.2 | 10.1 | 10.2 | 10.3
GCCCAGGC [8-mer GCCCAGGC] | 10 | 10 | 9.98 | 9.96 | 9.95 | 10.1
CCGGGTAC [8-mer CCGGGTAC] | 10.1 | 10.2 | 10.2 | 10.1 | 10.1 | 10.2

Sequence | binding signal (ARX (Homo sapiens)) | binding signal (ARX L343Q (Homo sapiens)) | binding signal (ARX P353L (Homo sapiens)) | binding signal (ARX P353R (Homo sapiens)) | binding signal (ARX R332H (Homo sapiens)) | binding signal (ARX T333N (Homo sapiens))
CGGGTTCC [8-mer CGGGTTCC] | 10.1 | 10.1 | 10.1 | 10.1 | 10.1 | 10.2
GAGCCGGC [8-mer GAGCCGGC] | 10 | 9.98 | 9.99 | 9.88 | 9.96 | 10.1
GGAAATGA [8-mer GGAAATGA] | 11 | – | – | – | – | –
AACAAATT [8-mer AACAAATT] | 11.9 | 10.8 | 11.5 | 10.7 | 10.9 | 11.3
CAGTTATC [8-mer CAGTTATC] | 11.2 | 10.7 | 11.1 | 10.7 | 10.7 | –
AGCGCCGC [8-mer AGCGCCGC] | 10.2 | 10.2 | 10.3 | 10.1 | 10.1 | 10.3
CGATTAGC [8-mer CGATTAGC] | 11.9 | 10.6 | 11.8 | 10.5 | 10.6 | –
GGGCGCGA [8-mer GGGCGCGA] | 10 | 9.97 | 10 | 9.93 | 10 | 10.1
AAATTGTT [8-mer AAATTGTT] | 11.4 | 10.6 | 11.1 | 10.7 | 10.8 | –
CCGCCGCC [8-mer CCGCCGCC] | 10.1 | 9.98 | 10 | 9.87 | 10 | 10.2
ACATATTA [8-mer ACATATTA] | 11.8 | 10.8 | 11.4 | 10.9 | 11 | –
CCCCCGCG [8-mer CCCCCGCG] | 10.2 | 10.1 | 10.1 | 10 | 10.1 | 10.2
TTAACGAA [8-mer TTAACGAA] | 11.4 | 10.5 | 11.3 | 10.4 | 10.5 | –
CTCCTCCC [8-mer CTCCTCCC] | 10.3 | 10.2 | 10.3 | 10.1 | 10.2 | 10.3
CTGGCCCA [8-mer CTGGCCCA] | 10.1 | 10.2 | 10.2 | 10.1 | 10.1 | 10.2
CCTGCAGG [8-mer CCTGCAGG] | 10.3 | 10.3 | 10.3 | 10.4 | 10.3 | 10.3
CAGGGGGG [8-mer CAGGGGGG] | 10.1 | 10.1 | 10.2 | 9.91 | 9.93 | 10.2
CAGTCGGG [8-mer CAGTCGGG] | 10.2 | 10.2 | 10.2 | 10.2 | 10.2 | 10.3
AGGCGGCA [8-mer AGGCGGCA] | 10.3 | 10.1 | 10.3 | 10.1 | 10.1 | 10.3
CCCCTGCG [8-mer CCCCTGCG] | 10.2 | 10 | 10.2 | 9.98 | 10 | 10.2
CGCCGGAG [8-mer CGCCGGAG] | 10.3 | 10.3 | 10.3 | 10.2 | 10.2 | 10.4
